Assay results: paper PMC4336329 (PLoS ONE, 2015)
Among all 310,000 compounds or so, about 2,200 (0.71%) showed an effect of 50% or more. The effect is printed as a negative number. This is one part of the list.

target: human ether-à-go-go-related gene (hERG) potassium channel (human, UniProt Q12809); experiment: primary screen, population patch clamp on CHO cells stably expressing hERG
Sequence (Q12809 whole entry, looked up): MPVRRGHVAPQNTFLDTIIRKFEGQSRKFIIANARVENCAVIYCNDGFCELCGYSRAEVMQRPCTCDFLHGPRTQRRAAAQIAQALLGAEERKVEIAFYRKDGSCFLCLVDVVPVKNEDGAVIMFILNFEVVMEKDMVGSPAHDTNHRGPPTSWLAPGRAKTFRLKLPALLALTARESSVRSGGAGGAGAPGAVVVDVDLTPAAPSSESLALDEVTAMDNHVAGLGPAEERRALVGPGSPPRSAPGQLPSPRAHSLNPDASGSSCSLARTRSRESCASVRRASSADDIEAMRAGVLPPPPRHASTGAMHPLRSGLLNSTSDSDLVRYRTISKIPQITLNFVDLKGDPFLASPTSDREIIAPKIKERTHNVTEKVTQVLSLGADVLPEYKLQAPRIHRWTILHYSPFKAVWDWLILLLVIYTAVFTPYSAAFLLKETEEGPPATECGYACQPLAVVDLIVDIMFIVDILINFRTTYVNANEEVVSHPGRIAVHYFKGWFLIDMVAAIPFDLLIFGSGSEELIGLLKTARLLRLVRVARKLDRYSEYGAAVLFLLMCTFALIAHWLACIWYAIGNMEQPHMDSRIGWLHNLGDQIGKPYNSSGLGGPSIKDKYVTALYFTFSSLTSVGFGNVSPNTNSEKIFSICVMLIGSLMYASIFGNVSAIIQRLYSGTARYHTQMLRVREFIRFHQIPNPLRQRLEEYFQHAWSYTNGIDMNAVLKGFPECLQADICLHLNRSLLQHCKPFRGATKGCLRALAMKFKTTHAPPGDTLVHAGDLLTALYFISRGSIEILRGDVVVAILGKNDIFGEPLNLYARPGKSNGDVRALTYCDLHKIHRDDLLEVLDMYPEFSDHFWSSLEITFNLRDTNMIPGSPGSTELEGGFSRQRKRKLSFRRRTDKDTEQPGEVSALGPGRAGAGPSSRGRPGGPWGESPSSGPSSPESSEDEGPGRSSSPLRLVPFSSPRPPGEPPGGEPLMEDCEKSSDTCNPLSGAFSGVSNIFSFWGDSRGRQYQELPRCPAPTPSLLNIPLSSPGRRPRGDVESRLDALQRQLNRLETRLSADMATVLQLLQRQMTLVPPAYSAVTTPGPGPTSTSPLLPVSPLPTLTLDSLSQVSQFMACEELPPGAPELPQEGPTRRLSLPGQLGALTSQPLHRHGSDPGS

| Structure (SMILES) | hERG current change (%, negative = inhibition) at 1uM [%] |
| --- | --- |
| COc1ccc(-c2cc(C(=O)O)[nH]n2)cc1OC | 5.18 |
| C/C(=N\NC(=O)c1ccco1)c1cccc2ccccc12 | 13.6 |
| CN1Cc2c(N3CCOCC3)nc3sc(C#N)c(N)c3c2CC1(C)C | 9.45 |
| CCC(=O)Nc1ccc(C(=O)CSc2nnc(-c3ccc(O)cc3)n2CC2CCCO2)cc1 (stereo not drawn) | 20.3 |
| O=C(Nc1ccc(S(=O)(=O)Nc2ccccn2)cc1)c1cccc(Br)c1 | 17.2 |
| O=c1cc[nH]c(=O)[nH]1 | -6.03 |
| O=C(NCCc1ccccc1)C1CCCN1S(=O)(=O)c1ccc(Cl)cc1 (stereo not drawn) | 7 |
| C=CCC1CCCCC12NC(=O)N(c1ccccc1)N2 (stereo not drawn) | 5.16 |
| CS(=O)(=O)c1ccc(Cl)c(NC(=O)Cc2ccsc2)c1 | 14.9 |
| COc1ccc(N2C(N)=NC(N)=NC23CCCC3)cc1.Cl | 6.04 |
| CC(C)N1C(=O)C(Cc2nc3ccccc3c(=O)n2-c2ccccc2)c2ccccc21 (stereo not drawn) | 14.2 |
| COc1ccc(CNC(=O)C23CC4CC(CC(Br)(C4)C2)C3)cc1 | 18 |
| CN(CC(=O)Nc1ccc(F)c(F)c1F)C(=O)C1CCCC1 | 8.79 |
| Cc1ccc(C)c(S(=O)(=O)N2CCCC2CNC(=O)C(=O)NC2CCCC2)c1 (stereo not drawn) | -1.03 |
| Cn1c(=O)c2sccc2n2c(CCCC(=O)NCCc3ccccc3)nnc12 | 17.5 |
| O=C(O)CCNC(=O)/C(=C\c1ccco1)NC(=O)c1ccco1 | 13.1 |
| CCN(C(=O)CN1C(=O)/C(=C/c2ccccc2)SC1=S)C1CCS(=O)(=O)C1 (stereo not drawn) | 12.5 |
| CC(=O)c1cccc(NC(=O)Nc2ccc(C(=O)N3CCOCC3)cc2)c1 | -10.6 |
| Cc1ccc(C)c(NC(=O)c2cc(-c3cc(C)cc(C)c3O)n[nH]2)c1 | 9.28 |
| COC(=O)C(O)(CC(=O)Nc1ccc(OC)cc1)C(F)(F)F (stereo not drawn) | -3.68 |
| CN[C@@H](C)[C@@H](O)c1ccccc1.Cl | 8.91 |
| O=C(NC(=S)Nc1sc2c(c1C(=O)O)CCCC2)c1ccccc1 | 9.8 |
| CCOC(=O)N1CCC(N(CCN(C)C)C(=S)Nc2ccccc2Cl)CC1 | 9.36 |

| Structure (SMILES) | hERG current change (%, negative = inhibition) at 1uM [%] |
| --- | --- |
| Cn1c(SCC(=O)NCCc2ccccc2)nnc1C1CCCCC1 | 22.7 |
| Cl.c1ccc2c(c1)oc1c(NCCCn3ccnc3)ncnc12 | -20.3 |
| COc1cc(-c2noc(C)c2C(=O)NCCO)cc(OC)c1OC | 10.6 |
| Cc1cc(Cl)ccc1C(=O)C1CCCN(C(=O)CCn2cnnn2)C1 (stereo not drawn) | 9.91 |
| N#CC1(NC(=O)CN2C(=O)c3ccc([N+](=O)[O-])cc3C2=O)CCCCC1 | 6.76 |
| Cc1c(C(=O)NCCc2ccc(S(N)(=O)=O)cc2)cccc1[N+](=O)[O-] | 15.7 |
| CC(=O)Nc1cccc(-n2nnc(SCC(=O)N(C)c3ccccc3)n2)c1 | 6.17 |
| CC(NC(=O)c1ccnn1C)C1CCCO1 (stereo not drawn) | 15.8 |
| O=C(c1ccc(C(F)(F)F)cc1)C1CCCN(C(=O)c2cnccn2)C1 (stereo not drawn) | -7.62 |
| COc1ccc(C(=O)NC(C)(C)C)cc1S(=O)(=O)N1CCCC1 | 7.08 |
| CN(C)S(=O)(=O)c1cccc(NC(=O)CCSc2ccc(Cl)cc2)c1 | 8.11 |
| O=c1c2ccccc2[nH]c(=S)n1Cc1ccccc1Cl | 15.3 |
| CCOc1ccc(-c2nc(S(=O)(=O)c3ccccc3)c(N3CCOCC3)o2)cc1 | 5.85 |
| Cc1ccc(OCCNC(=O)c2cccc(S(=O)(=O)N3CCN(C)CC3)c2)cc1 | 6.44 |
| COc1ccc(/C=N/n2c(C)nc3ccccc3c2=O)cc1OC | 9.07 |
| C/C(=N/NC(=O)CCc1ccccc1)c1ccco1 | 13.8 |
| CCC(C)(C)n1nnnc1C(c1ccc(OC)c(OC)c1)N1CCN(C(=O)c2ccco2)CC1.Cl (stereo not drawn) | 0.745 |
| CO/N=C/c1cccn1-c1nccc(N(C)C)c1C#N | 10.2 |
| O=C(Nc1ccc2c(c1)CCC2)C1CCCO1 (stereo not drawn) | 2.95 |
| O=C(CN1CCN(c2nc(-c3ccccc3)cs2)CC1)NNC(=O)c1ccc(Br)cc1 | 5.23 |
| NC(N)=N/N=C/c1ccc(OCc2ccc(Cl)cc2)cc1 | -5.54 |
| Cc1c(C)c2ccc(OCC(=O)NCCCn3ccnc3)cc2oc1=O | 9.16 |
| CC1CCc2c(sc3[nH]c(=S)n(C)c(=O)c23)C1 (stereo not drawn) | 18.5 |

| Structure (SMILES) | hERG current change (%, negative = inhibition) at 1uM [%] |
| --- | --- |
| COc1cc2nc(-c3ccccc3C)oc(=O)c2cc1OC | 12.4 |
| CCC(=O)NNc1ncnc2c1cnn2C | 5.27 |
| CSCCC(NC(=O)COc1ccccc1)C(=O)N(C)CC(=O)Nc1c(C)cccc1C (stereo not drawn) | 14.1 |
| Cc1ccc(NC(=O)Cn2cccc2)c(Br)c1 | -10.2 |
| Cc1cc(=O)[nH]c(SCC(=O)/C=C2\N(C)c3ccccc3C2(C)C)n1 | 11 |
| COc1ccc(C2=[N+]([O-])C(C)(C)N(O)C2C)cc1 (stereo not drawn) | -5.1 |
| Cn1cc(CNC(=O)C23CC4CC(CC(C4)C2)C3)cn1 | 9.66 |
| c1ccc(Cn2ncc3c(N4CCCCC4)ncnc32)cc1 | -5.94 |
| Cn1nc([N+](=O)[O-])nc1Oc1ccccc1C(=O)N1CCOCC1 | 11.5 |
| CC(C)(C)c1cc(NC(=O)NN2CCOCC2)nn1-c1c(Cl)cc(Cl)cc1Cl | 11.9 |
| Cc1ccc(S(=O)(=O)NNC(=O)C2COc3ccccc3O2)cc1 (stereo not drawn) | 9.18 |
| Cc1ccc(Cn2nnnc2CN2CCC(n3nnc4cc(C(F)(F)F)ccc43)CC2)cc1 | 11.8 |
| Cc1ccc2[nH]c3c(=O)n(CC(=O)N4CCN(C)CC4)ncc3c2c1 | 9.78 |
| COC(=O)c1cc(C(=O)OCC(=O)NC(=O)c2ccccc2)cc([N+](=O)[O-])c1 | 15.9 |
| CC(=O)OC(C(=O)NC1CCCCC1)c1ccc(C#N)cc1 (stereo not drawn) | 5.25 |
| Cc1cc(C)cc(N(C(=O)c2cccs2)C2C=CS(=O)(=O)C2)c1 (stereo not drawn) | 8.49 |
| C(=N\N1CCN(C2c3ccccc3-c3ccccc32)CC1)/c1ccccn1 | 13.8 |
| COC(=O)c1c(NC(=O)C2CC=CCC2C(=O)O)sc(C(N)=O)c1C (stereo not drawn) | -10.3 |
| COc1ccc(/C=C/c2ccncc2)cc1 | 7.47 |
| COc1ccc(OCC(=O)N/N=C(\C)CC(=O)Nc2ccc(NC(C)=O)cc2)cc1 | 15.5 |
| COC(=O)c1ccc(NC(=O)c2ccccc2N(C)S(=O)(=O)c2ccccc2)cc1 | 13.9 |
| COC(=O)C1=C(c2ccc(S(C)(=O)=O)cc2)C[C@@H]2CC[C@H]1N2C(=O)N1CCC(O)CC1 | 9.51 |
| O=C(Nc1nc2ccccc2n1CCN1CCOCC1)c1ccc(COc2ccccc2Br)o1 | -7.69 |

| Structure (SMILES) | hERG current change (%, negative = inhibition) at 1uM [%] |
| --- | --- |
| CCCN1CCC(=NNc2ccc(C(=O)O)cc2)CC1.O=S(=O)(O)O | 11.2 |
| CCNC(=S)N/N=C(\C)c1cccc(OC)c1 | 3.62 |
| CCOC(=O)c1ccc(NC(=O)C2(c3ccc(OC)cc3)CCCC2)cc1 | 7.25 |
| Cc1csc(NC(C)c2nc3cc(Cl)c(Cl)cc3n2CCCO)n1 (stereo not drawn) | 6.67 |
| COc1ccc(-n2nc(C(=O)NCC(=O)N3CCCCCC3)c3ccccc3c2=O)cc1OC | 2.17 |
| O=C(Nc1ccccc1)c1sccc1Oc1ccc([N+](=O)[O-])cc1F | 3.54 |
| C/C=C/c1ccc(OCCOCCNCc2ccccc2)c(OC)c1.O=C(O)C(=O)O | 5.38 |
| O=C1C(=Cc2cccs2)C(=O)c2ccccc21 | 12.1 |
| FC(F)(F)c1cccc(Cc2noc(CN3CCCCC3c3ccccn3)n2)c1 (stereo not drawn) | 6.57 |
| COc1ccccc1N1CCN(c2nnc(-c3ccc(F)cc3)c3ccccc23)CC1 | 12.4 |
| Cc1sc2ncnc(N3CCCC(C)C3)c2c1C.Cl (stereo not drawn) | 15 |
| Cc1ccc(C)c(C(=O)N2CCN(c3ncccn3)CC2)c1 | 4.4 |
| COc1ccccc1C(=O)N1CCN(c2cccc(Cl)c2)CC1 | 12.4 |
| COc1ccc(Cl)cc1C(=O)O/N=C(\N)c1ccccn1 | 11.4 |
| CCCC(C)c1nnc(NC(=O)C2CC(=O)N(c3ccc(OCC)cc3)C2)s1 (stereo not drawn) | -13.2 |
| O=C(C[n+]1cccc(CNC(=O)c2ccc(OC(F)F)cc2)c1)c1ccccc1.[Cl-] | 2.3 |
| CSc1ncccc1C(=O)NCCc1ccccc1 | 3.42 |
| NC(=O)C1CCN(C(=O)OCc2ccccc2)CC1 | 15.6 |
| CCOc1ccc(-n2c(=S)sc3c(=O)[nH]c(SCC(=O)C(C)(C)C)nc32)cc1 | 18.1 |
| O=C(Nc1ccc(S(=O)(=O)NC2=NCCCCC2)cc1)c1ccc([N+](=O)[O-])s1 | -12 |
| Cc1ccc(NC(=O)CSc2nnc(C3CC3)n2N)cc1S(=O)(=O)N1CCOCC1 | 20.1 |
